Source: PubChem BioAssay AID1347073 (National Center for Advancing Translational Sciences (NCATS), 2019)
The campaign covered roughly 45,000 compounds. About 200 (0.44%) were called active. About 7% were inconclusive and are not listed. Calls follow the shape of the dose curve; as a rule, active = well fitted activation curve with a large enough effect; inconclusive = small, poorly fitted or top-dose-only effect; inactive = no such curve, though single readings can be large or run the other way. The list shows a part of the results.

Assay: qHTS of TDP-43 Inhibitors: NCGC Sytravon Library Screen; also: 0% is about no effect; nearly all actives have a fitted effect of over 55% in size
Conditions: yeast TDP-43 toxicity rescue, BacTiter-Glo growth, 24 h; series mostly up to 46.1 µM; growth rescue (activation): at the top concentration
How it was run: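 TDP-43-expressing yeast, pregrown in raffinose, seeded at OD600 0.02 in galactose medium with compound for 24 hr at 30 deg C. Growth read by BacTiter-Glo luminescence, so rescue of toxicity appears as activation.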

| SMILES | growth rescue (activation) |
| --- | --- |
| CC(C(=O)NCc1cccc(Cl)c1)N1C(=O)c2ccccc2C1=O (configuration not stated) | inactive: 6.97% |
| COc1ccc(CNC(=O)C(c2ccccc2F)N(C(=O)c2csnn2)C2CC2)cc1 (configuration not stated) | inactive: -11% |
| Cc1ccc2c(COC(=O)C3CC(=O)N(c4ccc5c(c4)OCCO5)C3)cc(=O)oc2c1 (configuration not stated) | inactive: 10.3% |
| COc1ccccc1CNC(=O)COC(=O)c1ccc(C(=O)c2ccccc2)cc1 | inactive: 14.5% |
| O=[N+]([O-])c1cc(S(=O)(=O)N2CCCCCC2)ccc1F | inactive: -0.796% |
| CCCNC(=O)C1(C)CCCN(Cc2ccccc2F)C1 (configuration not stated) | inactive: 6.65% |
| O=C(CN1C(=O)NC2(CCCc3ccccc32)C1=O)N1CCc2ccccc2C1 (configuration not stated) | inactive: -22.1% |
| COc1cc(CNc2nc3ccccc3s2)cc(OC)c1OC | inactive: 2.64% |
| COc1cc(Cl)c(C)cc1NC(=O)c1cc(S(=O)(=O)N(C)C)ccc1N1CCCC1 | inactive: 2.18% |
| C#CC[N+](C)(C)CCCCCCCCC | inactive: -7.13% |
| O=C(CCCCCn1c(=O)c2sccc2n(CC(=O)Nc2cccc(Cl)c2)c1=O)NCc1ccc2c(c1)OCO2 | inactive: -5.76% |
| Cn1c(N)c(N=O)c(=O)n(C)c1=O | inactive: 3.23% |
| COCCn1cnc2c1c(=O)n(CC(=O)OCC#N)c(=O)n2Cc1ccccc1 | inactive: 8.64% |
| COCc1c(C(=O)Nc2ccc3nc(N4CCOCC4)sc3c2)oc2ccccc12 | inactive: 5.93% |
| CC(=O)Nc1ccc(S(=O)(=O)NC2CCSc3ccccc32)cc1 (configuration not stated) | inactive: -6.8% |
| Cn1cccc1CC(=O)N/N=C/c1cccc([N+](=O)[O-])c1 | inactive: 5.78% |
| c1cncc(-c2noc(-c3ccco3)n2)c1 | inactive: -0.073% |
| COc1ccc(NC(=S)Nc2cc(C)[nH]n2)cc1Cl | inactive: 2.09% |
| COc1ccc(CCC(=O)OCC(=O)Nc2ccc(OC)c(OC)c2)cc1OC | inactive: -9.24% |
| CCCCn1c(SCC(=O)NC2CC2)nnc1-c1ccncc1 | inactive: 17.2% |
| CCc1nnc(NC(=O)CCN2C(=O)/C(=C/c3cc(OC)c(OC)c(OC)c3)SC2=S)s1 | inactive: 9.85% |
| CC1(C)CC(=O)C=C(NNC(=O)c2ccccc2)C1 | inactive: 1.27% |

| SMILES | growth rescue (activation) |
| --- | --- |
| O=C1C=C(O)c2cccc3cccc1c23 | inactive: -20.4% |
| CCOc1cc(S(=O)(=O)n2ccc(C)n2)ccc1Br | inactive: 6.41% |
| CCCC(=O)Nc1cccc(S(=O)(=O)N(C)c2ccccc2)c1 | inactive: 16.9% |
| CCCc1cc2c(=O)c(-c3nc4ccccc4s3)c(COCC(=O)O)oc2cc1O | inactive: 8.66% |
| CCn1cnc2c1c(=O)n(CC(=O)O)c(=O)n2Cc1ccccc1 | inactive: 0.904% |
| CN(C(=O)c1ccc(Br)o1)C1CCS(=O)(=O)C1 (configuration not stated) | inactive: -11.2% |
| COc1ccc(NC(=O)c2cc(S(=O)(=O)N3CCCCC3)ccc2C)cc1S(=O)(=O)N1CCOCC1 | inactive: 3.57% |
| CCOC(=O)n1cc(C(=O)c2ccccc2O)cn1 | inactive: -9.58% |
| COC(=O)c1ccc(/C=C/C(=O)OCC(=O)Nc2sccc2C(N)=O)cc1 | inactive: 8.6% |
| CC(Sc1nnc(C2CC2)n1C)C(=O)Nc1ccc(N2CCOCC2)cc1 (configuration not stated) | inactive: -10.6% |
| CCC(C(=O)NCCc1c[nH]c2ccc(C)cc12)c1ccccc1 (configuration not stated) | inactive: -0.825% |
| Cc1cc(N)n(-c2cc(C)c3ccccc3n2)n1 | inactive: 23.8% |
| Cc1nc(Cl)nc(N(C)c2ccccc2)c1[N+](=O)[O-] | inactive: 5.46% |
| COC(=O)N1CCCCC1c1cc(C(=O)Nc2ccc3c(c2)OCO3)no1 (configuration not stated) | inactive: 20.2% |
| CCCC(c1nnnn1C(C)(C)C)N1CCN(C(=O)c2ccco2)CC1 (configuration not stated) | inactive: 5.67% |
| CCCOC(=O)C1[C@H]2C(=O)N(CC3CCCO3)C[C@]23C=C[C@H]1O3 (some centres not stated) | inactive: -2.08% |
| CC(=O)N(Cc1cc(=O)[nH]c2ccccc12)c1ccc(C)cc1C | inactive: -9.26% |
| Cc1cc(NC(=O)CSc2ccc(-c3ccc(F)cc3)nn2)no1 | inactive: 17.2% |
| COC(=O)c1ccc2c(=O)n(Cc3ccc(C(=O)NCCCN4CCC(C)CC4)cc3)c(=S)[nH]c2c1 | inactive: 6.06% |
| O=C1NC(=Nc2cccc(O)c2)S/C1=C\c1cccnc1 | inactive: -0.359% |
| Cc1ccc(NC(=S)Nc2cc(C(=O)O)ccc2N2CC3CC(C2)c2cccc(=O)n2C3)cc1C (configuration not stated) | inactive: 7.06% |
| COc1ccc(Cl)cc1S(=O)(=O)NC(C)C(=O)NCc1ccccn1 (configuration not stated) | inactive: -0.147% |

| SMILES | growth rescue (activation) |
| --- | --- |
| CCC(CC)NC(=O)c1ccc(Cl)cc1 | inactive: 8.36% |
| c1ccc(C2=Nc3cccc4cccc(c34)N2)cc1 | inactive: -15.3% |
| COc1cccc(Oc2ccc(C(F)(F)F)cc2N)c1 | inactive: -12.6% |
| CCc1noc(C)c1C(=O)N1CCCC(N2CCN(c3cccc(Cl)c3)CC2)C1 (configuration not stated) | inactive: -3.61% |
| CCCNC(=O)C1(C)CCCN(C(=O)COc2ccc(Cl)cc2Cl)C1 (configuration not stated) | inactive: -0.876% |
| Cc1ccc(NS(=O)(=O)c2cc(C(=O)Nc3cccnc3)ccc2C)cc1 | inactive: 13.6% |
| COc1ccccc1NC(=O)COC(=O)/C=C/c1ccc2c(c1)OCO2 | inactive: -4.88% |
| CCOC(=O)c1sc(N(C)C(C)=O)nc1C | inactive: 44% |
| COc1ccc(-c2nnc3n2CCCCC3)cc1OC | inactive: -14.1% |
| O=C(COC(=O)Cn1cnc2ccccc21)Nc1ccc(F)c(F)c1 | inactive: 10.6% |
| Cc1ccc(NC(=O)c2ccc3c(c2)OCCO3)cc1C | inactive: -22.9% |
| O=C(COC(=O)c1ccccc1C(=O)c1ccccc1)Nc1ccc(SC(F)F)cc1 | inactive: 5.27% |
| OCCC1CN(Cc2ccc3ncccc3c2)CCN1Cc1ccccc1 (configuration not stated) | inactive: -2.29% |
| CC1(C(=O)Nc2cnc3ccccc3c2)CCN1C(=O)C/C=C/c1ccccc1 (configuration not stated) | inactive: 23.5% |
| CCCN(CCC)CCCNC(=O)Cn1cnc2sc(C)c(S(=O)(=O)N3CCCCC3)c2c1=O | inactive: -19.7% |
| O=C(/C=C/c1ccc(Cl)cc1Cl)Nc1cccc(S(=O)(=O)NC2=NCCC2)c1 | inactive: -2.48% |
| O=[N+]([O-])c1ccc(P(=O)(Cc2ccccc2)c2ccccc2O)cc1 (configuration not stated) | inactive: 1.4% |
| O=c1oc2ccccc2c2oc3cc(O)c(O)cc3c12 | inactive: -9.35% |
| Cc1cc(C)c(/C([O-])=C(/C(=S)Nc2ccc(SC(F)F)cc2)[n+]2ccccc2)cc1C | inactive: 6.08% |
| O=C(N/N=C/c1c[nH]c2ccccc12)c1cccc([N+](=O)[O-])c1 | inactive: 14.3% |
| O=C(O)c1ccc(Sc2nnc3ccccn23)c([N+](=O)[O-])c1 | inactive: 6.38% |
| Cc1cc(OC(C)C(=O)Nc2ccccc2C(=O)N2CCCC2)ccc1Cl (configuration not stated) | inactive: 19.3% |

| SMILES | growth rescue (activation) |
| --- | --- |
| CCCCNC(=O)CCCCn1c(=S)[nH]c2c([nH]c3ccc(OC)cc32)c1=O | inactive: -3.52% |
| COc1ccc(C2=NC3(CCCCC3)N(CC(=O)Nc3ccc(C(C)C)cc3)C2=O)cc1 | inactive: 11.5% |
| COc1cc2c(cc1OC)CN(C(=O)CSc1nnc(C)s1)CC2 | inactive: 13.8% |
| CCOC(=O)C1=C(N)Oc2cc(O)ccc2C1c1ccc([N+](=O)[O-])cc1 (configuration not stated) | inactive: -2.16% |
| CCN(CC)CC(=O)Nc1c(C)cc(C(C)(C)C)cc1C | inactive: 7.37% |
| Cc1nn(-c2ccccc2)c(N2CCCC2)c1/C=N/NC(=O)c1cc(-c2ccccn2)nc2ccccc12 | inactive: 9.1% |
| COc1ccc(N(CC(O)Cn2cnc3ccccc32)S(=O)(=O)c2ccc(C)cc2)cc1 (configuration not stated) | inactive: 12.6% |
| NC(=O)c1nsc(C(=O)N(c2ccc3c(c2)OCCO3)C(C(=O)NCC2CCCO2)c2ccc(F)cc2)c1N (configuration not stated) | inactive: 4.22% |
| CC(C)(C)NS(=O)(=O)c1ccc(C(=O)Nc2ccc3c(c2)OCO3)cc1 | inactive: 11.8% |
| O=C(COC(=O)c1c(F)cccc1F)NCc1cccs1 | inactive: 4.19% |
| CCCCOc1ccc(/C=C/C(=O)NC2=Nc3ccccc3NC(C)=C2C(=O)OCC)cc1OC | inactive: 15.9% |
| O=S(=O)(Nc1ccccn1)c1ccc(Cl)c2ccccc12 | inactive: 1.69% |
| CN(Cc1ccccc1)C(=O)CN1C(=O)c2ccccc2S1(=O)=O | inactive: 18.5% |
| O=C(O)CC(SCC(=O)Nc1ccc(Br)cc1)C(=O)O (configuration not stated) | inactive: -2.81% |
| COc1cccc(N=CC2=C(O)CC(C)(C)CC2=O)c1 | inactive: 28.6% |
| Cc1cc(=O)oc2cc(NC(=O)C3CCCC3)ccc12 | inactive: 10.2% |
| CN(CCO)C(=O)c1c(NC(=O)c2ccccc2)sc2c1CCCC2 | inactive: -2.06% |
| Cc1ccc(S(=O)(=O)N(CC(=O)NCc2ccco2)c2ccccc2C)cc1 | inactive: 21.3% |
| CN(C(=O)COC(=O)c1ccc(Cl)c(N)c1)c1ccccc1 | inactive: -8.7% |
| CCN(CC)S(=O)(=O)c1ccc(C)c(NC(=O)CNCc2ccccc2OC)c1 | inactive: 2.46% |
| CCN(Cc1ccccc1)C(=O)CSc1nc(C)cc(=O)[nH]1 | inactive: 10.8% |
| O=[N+]([O-])c1ccc(Nc2ccc(F)cc2)nc1 | inactive: 19.9% |

| SMILES | growth rescue (activation) |
| --- | --- |
| COC(=O)c1ccc(Cn2c(C)c(C(=O)NCc3ccco3)sc2=O)o1 | inactive: 8.07% |
| NCC1CC2c3ccccc3C1c1ccccc12 (configuration not stated) | inactive: 9.1% |
| Cc1ccc(-c2nnc(SCC(=O)N/N=C/c3c(C)nn(-c4ccccc4)c3C)n2-c2ccc(C)cc2)cc1 | inactive: -8.89% |
| CC(C)CN(C(=O)CCNC(=O)c1ccc(Cl)cc1)C1CCS(=O)(=O)C1 (configuration not stated) | inactive: -15% |
| CC1(C(=O)Nc2cccc(NS(C)(=O)=O)c2)Cc2c(-c3ccc(C(N)=O)cc3)ccnc2O1 (configuration not stated) | inactive: 8.09% |
| COc1cc(C(=O)NC2CC(C)(C)NC(C)(C)C2)cc(OC)c1OC | inactive: 8.96% |
| NS(=O)(=O)c1ccc(CNC(=O)c2csc3c2CCCC3)cc1 | inactive: -3.47% |
| O=C(Nc1ccc2c(c1)OCO2)C1CCN(Cc2cc3c(cc2O)OCO3)CC1 | inactive: -12.9% |
| COc1cccc(-c2cnc(C(O)c3cc(C)ccc3C)[nH]2)c1 (configuration not stated) | inactive: 9.14% |
| Cc1ccc(SCC(=O)NNC(=O)CNC(=O)c2ccc(Br)cc2)cc1 | inactive: -7.76% |
| O=C(/C=C/c1cccs1)c1ccc(Br)cc1 | inactive: 7.96% |
| COc1ccccc1NS(=O)(=O)c1ccc(C(=O)N2CCCCCC2)cc1 | inactive: -7.95% |
| CC1(C(=O)NCc2cccc3ccccc23)CCN1Cc1ccc2ccccc2c1 (configuration not stated) | inactive: 8.2% |
| CCCCOc1ccc(N(CC(=O)NCC2CCCO2)C(=O)CCC(=O)Nc2nccs2)cc1 (configuration not stated) | inactive: -22.8% |
| COc1ccccc1CC(=O)Nc1ccc(C(=O)N2CCCCC2)cc1 | inactive: 3.2% |
| CC(=O)NCCn1c(SCC(=O)NCCc2ccc(S(N)(=O)=O)cc2)nc2ccccc2c1=O | inactive: 11.6% |
| O=C(CCn1c(=O)[nH]c2ccsc2c1=O)N1CCN(c2ccc([N+](=O)[O-])cc2)CC1 | inactive: -3.41% |
| Cn1c(NCc2ccccc2)nc2cc(-c3cccc(C(F)(F)F)c3)sc2c1=O | inactive: 13.9% |
| COC(=O)c1ccc(CSc2nnc(-c3ccc4c(c3)OCO4)n2-c2ccccc2)o1 | inactive: 8.44% |
